Some of these densities may be calculated back from excess volumes.
Assay: xn = mol fraction of the nth substance listed
Details: 100 kPa

CNCCO + CCCCOCCO
mass density [kg/m3]
Details | x1 = 0.1488 | x1 = 0.4027 | x1 = 0.5119 | x1 = 0.6114 | x1 = 0.7859 | x1 = 0.934 | x1 = 1
293.15 K | 905 | 913.6 | 917.5 | 921.4 | 929.2 | 936.8 | 940.1
298.15 K | 900.9 | 909.5 | 913.6 | 917.5 | 925.2 | 932.9 | 936.2
303.15 K | – | 905.5 | 909.5 | 913.5 | 921.3 | 929 | 932.3
308.15 K | 892.6 | 901.4 | 905.5 | 909.4 | – | 925 | 928.4
313.15 K | – | 897.3 | 901.4 | 905.4 | 913.3 | 921.1 | 924.5
318.15 K | 884.2 | 893.1 | 897.3 | – | – | 917.1 | –
323.15 K | 880 | – | 893.2 | – | 905.3 | – | 916.5
328.15 K | 875.7 | 884.8 | 889 | 893.1 | 901.2 | 909.1 | –
333.15 K | – | 880.6 | 884.8 | 889 | 897.1 | 905 | 908.5
338.15 K | 867 | 876.3 | 880.6 | 884.8 | 892.9 | 900.9 | 904.4
343.15 K | 862.6 | 872 | – | 880.5 | 888.8 | 896.8 | 900.3
348.15 K | 858.2 | 867.6 | – | 876.3 | 884.6 | – | 896.2
353.15 K | 853.7 | 863.3 | 867.7 | – | 880.3 | 888.5 | –

CCCCOCCO + CNCCO
x2 = 0
Details | mass density [kg/m3]
293.15 K | 900.4
298.15 K | 896.2
303.15 K | 892
308.15 K | 887.8
323.15 K | 874.9
328.15 K | 870.6
333.15 K | 866.2
338.15 K | 861.8
343.15 K | 857.3

COCCO + CNCCO
x2 = 0
Details | mass density [kg/m3]
293.15 K | 962.4
313.15 K | 946.2
318.15 K | 941.5
323.15 K | 936.8
328.15 K | 932
338.15 K | 922.4
348.15 K | 912.5
353.15 K | 907.5

— a compilation of properties of binary mixtures (doi:10.1021/acs.jced.9b00364)
